Like-named read-outs stand apart in the source and are kept apart here.
Source text: Various types of plant extracts can be included in the medical gel. As a non-limiting example, the plant extract can be aloe vera juice. […] Aloe vera juice is also bactericidal of Pseudomonas aeruginosa. Aloe vera juice can be combined with benzalkonium chloride in the medical gel. Aloe vera juice can replace a portion of the benzalkonium chloride in the medical product. […] But the concentration of benzalkonium chloride can be lowered to 0.10% when aloe vera juice is present at 10%. Advantageously, the lower concentration of benzalkonium chloride at 0.10% is non-irritating. Aloe vera juice is also a hydrating agent.

In the case of benzalkonium chloride, the Skin irritation (concentration of 0.10%) was “non-irritating” and the Skin irritation (concentration of 0.13%) was “causes skin irritation”.
